Reference: PubChem BioAssay AID1345082 (National Center for Advancing Translational Sciences (NCATS), 2018)
The campaign covered roughly 94,000 compounds. About 4,000 (4.3%) were called active. Inconclusive means that the source gave no clear call. Such entries were picked first, then a sample of the others. The call rests on the fitted dose curve; in most records, active means well fitted inhibition curve with a large enough effect; inconclusive means small, poorly fitted or top-dose-only effect; inactive means no such curve, though single readings can be large or run the other way. Potencies beside an inconclusive call are fits to weak or partial responses and may not hold up.

Experiment: Cytotoxic Profiling in NIH 3T3 Cell Line of Diverse Libraries Using Quantitative High-Throughput Screening; further: nearly all actives have a fitted effect of over 55% in size
Settings: NIH 3T3 viability, CellTiter-Glo ATP luminescence, 48-72 h; series mostly up to 96.7 µM
Summary of the method: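 Cytotoxicity was measured by CellTiter-Glo ATP luminescence after 48 or 72 h compound exposure at 37 °C. Mouse NIH 3T3 fibroblasts were seeded at 400 cells/well and dosed by 23 nL pin transfer.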
Potency means the concentration at half of the fitted maximal effect; tags describe the fitted curve by direction and shape.

SMILES	Potency
O=C1c2c(nc(COc3ccc(F)cc3F)n2Cc2ccccc2)NCCN1CC1CC1	inconclusive: 56.2 µM [inhibitor, partial curve, poor fit]
O=C(Nc1ccc(-c2nnc3n2CCCC3)cc1)C1CC1	inactive
O=C(NC1CCCCC1)c1nc2cccnc2n(Cc2ccccc2)c1=O	inconclusive: 50.1 µM [inhibitor, partial curve, poor fit]
Cc1cnc(CC2CCCN(S(=O)(=O)c3cccs3)C2)n1C(C)C (centres undefined)	inactive
C=CCn1cc2c3c(cccc31)[C@H](CC(C)C)N[C@H](C(=O)NCc1ccccn1)C2	inconclusive: 44.7 µM [inhibitor, partial curve, poor fit]
Cc1cccc(C(C(=O)NCc2nn(C)c3ccc(C)cc23)N(C)C)c1 (centres undefined)	inconclusive: 89.1 µM [inhibitor, partial curve, poor fit]
COCCNc1ccc(-c2noc([C@@H]3CCCN3Cc3ccncc3)n2)cn1	inconclusive: 112 µM [inhibitor, partial curve, poor fit]
Oc1ccc(-c2nc(C3CC3)nc3c2CCN(Cc2ccc(C(F)(F)F)cc2)CC3)cc1	inconclusive: 50.1 µM [inhibitor, partial curve, poor fit]
COc1ccccc1CNc1ncnc2c1CN(C1CCCNCC1)C(=O)CN2C (centres undefined)	inactive
Cn1nc(C(=O)N2C[C@@H](CO)[C@H](c3ccncc3)C2)c2ccccc21	inconclusive: 70.8 µM [inhibitor, partial curve, poor fit]
CCCOCCNC(=O)c1c(C)noc1-c1ccc2c(c1)OCO2	inconclusive: 50.1 µM [inhibitor, partial curve, poor fit]
Cc1ccc(S(=O)(=O)N(C)CC2CCOC2)cc1C (centres undefined)	inactive
CCC(=O)N1CCc2c(C(=O)Nc3cc(OC)cc(OC)c3)cccc21	inactive
Cc1ccccc1Cc1c(C)nc2c(C(=O)N3CCC(Cc4nncn4CC4CC4)CC3)cnn2c1C	inactive
Cc1ccccc1C(=O)N1CCCCC12Cc1ccccc1NC2=O (centres undefined)	inconclusive: 44.7 µM [inhibitor, partial curve, poor fit]
O=[S+]([O-])(c1cccs1)N1CCC2(CC(c3cccc(C(F)(F)F)c3)=NO2)C1 (centres undefined)	inconclusive: 25.1 µM [inhibitor, full curve, poor fit]
CN(Cc1ccco1)C(=O)c1ccc(-c2ccc(N3CCCCCC3)nc2)cc1	inconclusive: 44.7 µM [inhibitor, partial curve, poor fit]
O=C(Nc1ccccc1C(F)(F)F)N1CCCC1c1nncn1-c1ccccc1 (centres undefined)	inactive
COc1ccccc1CC(=O)N1CCC[C@H]1c1nc(-c2ccc(C)cc2)no1	inconclusive: 44.7 µM [inhibitor, partial curve, poor fit]
COc1ccc(-c2noc(Nc3cc(C)ccc3OC)n2)cc1	inconclusive: 39.8 µM [inhibitor, partial curve]
Cc1cc2nc3n(c(=O)c2n1CC(=O)Nc1ccc(F)cc1F)CCC3	inactive
CC(C)c1cccc(NC(=O)c2cc3n(n2)CC(c2ccc4c(c2)OCO4)OC3)c1 (centres undefined)	inconclusive: 50.1 µM [inhibitor, partial curve, poor fit]

SMILES	Potency
COc1ccc(-c2ccc(C(=O)N[C@H]3CCOC[C@H]3C3CCOCC3)o2)cc1	inconclusive: 56.2 µM [inhibitor, partial curve, poor fit]
O=C(C1COc2ccccc2C1)N1CCC(n2c(=O)[nH]c3ccccc32)CC1 (centres undefined)	inconclusive: 79.4 µM [inhibitor, partial curve, poor fit]
Cc1nc2c(c(-c3ccc(Cl)cc3)n1)CCN(C(=O)NC1CCCC1)CC2	inconclusive: 56.2 µM [inhibitor, single point]
CCCNC(=O)Cc1ccc(N(Cc2ccccc2)C(=O)c2ccco2)cc1	inconclusive: 50.1 µM [inhibitor, partial curve, poor fit]
CCN1c2cc(C(=O)Nc3cccc(C)c3)ccc2C(=O)N2CCCC21 (centres undefined)	inconclusive: 44.7 µM [inhibitor, partial curve, poor fit]
O=C(Cc1cccc(F)c1)N1CCC(Cc2nncn2-c2ccccc2)CC1	inconclusive: 56.2 µM [inhibitor, partial curve, poor fit]
CN1CC(=O)N(c2ccccc2F)Cc2c1ncnc2N1CCc2ccccc2C1	inconclusive: 44.7 µM [inhibitor, partial curve, poor fit]
Fc1ccccc1-c1noc(-c2nc(Cc3ccccc3)no2)n1	inactive
COc1ccc([C@@H]2CN(c3nnnn3-c3ccccc3)C[C@H]2NC(C)=O)cc1	inactive
COCCN1Cc2ccc(Nc3ccc(OC)cc3)nc2C(C)(C(=O)NC(C)C)C1 (centres undefined)	inconclusive: 79.4 µM [inhibitor, partial curve, poor fit]
Cc1ccccc1N1CCCN(Cc2cccc(CCN)c2)CC1	inconclusive: 35.5 µM [inhibitor, full curve, poor fit]
COc1c(C)cnc(Cn2c(-c3ccccc3)nc(C)c(CCO)c2=O)c1C	active: 44.7 µM
COc1ccccc1Nc1ccnc(N2CCN([S+](=O)([O-])c3cccs3)CC2)n1	inconclusive: 20 µM [inhibitor, full curve]
CCOc1ccc2c(C)c(C(=O)N3CC[C@](C)(O)[C@H](C)C3)oc2c1OCC	inconclusive: 56.2 µM [inhibitor, partial curve, poor fit]
CN1c2cc(C(=O)Nc3cccc(Br)c3)ccc2C(=O)N2CCCCCC21 (centres undefined)	inconclusive: 50.1 µM [inhibitor, partial curve, poor fit]
COc1cccc(-c2ccc(CN3CCCC(NC(=O)Nc4ccccc4)C3)cc2)c1 (centres undefined)	active: 22.4 µM
CN(C)c1ccc(Nc2ncncc2-c2nc(-c3ccccc3)no2)cc1	inactive
Cc1cc(=O)n(CC(=O)N2CCc3ccccc32)c(N2CCc3ccccc3C2)n1	inactive
CCOC(=O)C1CCN(C(=O)c2nc3sccn3c2-c2ccncc2)CC1	inactive
COc1cccc(NC(=O)Cn2c(-c3ccc(F)cc3)nc(C)cc2=O)c1	inactive
COCCNC(=O)C1CCCN(Cc2cccc(-c3cccs3)c2)C1 (centres undefined)	inactive
Cc1ccc(NC(=O)C2N(C(C)C)C(=O)C23CCCCC3)cc1 (centres undefined)	inactive

SMILES	Potency
COC(=O)c1c(S(=O)(=O)N2CCCCCCC2)sc2c1CCN(C(=O)C1CC=CCC1)C2 (centres undefined)	inconclusive: 50.1 µM [inhibitor, partial curve, poor fit]
CC(C)CNC(=O)C1COC2(CCC(C)CC2)N1C(=O)c1cccc([N+](=O)[O-])c1 (centres undefined)	inconclusive: 63.1 µM [inhibitor, partial curve, poor fit]
O=C(N[C@H]1CCN2C(=O)c3cc(-c4ccsc4)ccc3NC(=O)[C@@H]2C1)c1cccs1	inconclusive: 79.4 µM [inhibitor, partial curve, poor fit]
CC(C)(C)C(=O)NC1CCN(C(=O)c2ccc(-c3cncnc3)cc2)CC1	inactive
COc1ccc(F)c(CN2CCCC3(CCN(c4cc(C)nc(N)n4)C3)C2)c1 (centres undefined)	inconclusive: 56.2 µM [inhibitor, partial curve, poor fit]
CCc1noc(-c2ccn3c(CNC(=O)Cc4cccc(OC)c4)nnc3c2)n1	inactive
COC(=O)NC1CCCN(Cc2ccc(-c3cc(C)cc(C)c3)cc2)C1 (centres undefined)	active: 44.7 µM
CC(C)CCN1C[C@@H]2[C@H](C1)N(CCOc1ccccc1)C(=O)C(C)(C)[S+]2(=O)[O-]	inconclusive: 112 µM [inhibitor, single point]
CN(C)C(=O)c1ccc(-c2ccc(N3CCCCCC3)nc2)cc1	inconclusive: 44.7 µM [inhibitor, partial curve]
O=S(=O)(Cc1ccccc1)N1CCC(Oc2ccc(-c3noc(C4CC4)n3)cc2)C1 (centres undefined)	inconclusive: 28.2 µM [inhibitor, partial curve]
O=C(Cc1ccc(F)cc1)N1CCc2nc(-c3ccc(Cl)cc3)nc(-c3ccccc3)c2C1	inconclusive: 39.8 µM [inhibitor, partial curve]
COc1ccccc1-n1c(=O)c(C(=O)NCC2CC2)nc2cccnc21	inactive
O=C(C1CCCC1)N1CC2(CCCN(Cc3cccnc3)C2)Cc2ccccc21 (centres undefined)	inconclusive: 50.1 µM [inhibitor, partial curve, poor fit]
Cc1cccc(-c2ccc3c(c2)C(=O)N2CC[C@H](NC(=O)c4cnccn4)C[C@H]2C(=O)N3)c1C	inconclusive: 7.94 µM [inhibitor, full curve, poor fit]
COc1ccc(C(=O)N2CCCC(c3nc(-c4ccccc4)no3)CCNC(=O)CC2)cc1F (centres undefined)	inconclusive: 50.1 µM [inhibitor, partial curve, poor fit]
Cc1ncccc1OCC1CN(Cc2cccc(C(F)(F)F)c2)C(=O)c2c(ccnc2-c2ccc(OCC(=O)O)cc2)O1 (centres undefined)	inconclusive: 56.2 µM [inhibitor, partial curve, poor fit]
NCCC1CCN(C(=O)Nc2cc(F)cc(F)c2)CC1	inactive
COC[C@@H]1CN(S(=O)(=O)c2cn(C)cn2)C[C@H]1c1ccccn1	inactive
Cc1ccc(NC2=N[C@H]3[C@@H](O)[C@H](O)C[C@H](C(=O)N(C)Cc4ccccc4)[C@H]3S2)cc1	inactive
COc1ccc(-n2cc(CN3CCCC(CO)C3)c(-c3cccc(F)c3)n2)cc1 (centres undefined)	inconclusive: 56.2 µM [inhibitor, partial curve, poor fit]
